# PubChem BioAssay (Tox21)
# The shares of active, inactive and inconclusive entries below differ from those in the screen. A potency beside an inconclusive call is a rough fit, not a confirmed value. Activity calls are given as the source filed them. Unless noted, the call rests on the fitted dose curve.
# How the values were obtained:
# [1] = biological target: Peroxisome proliferator-activated receptor gamma (Homo sapiens) (UniProt P37231); assay: qHTS assay to identify small molecule antagonists of the peroxisome proliferator-activated receptor gamma (PPARg) signaling pathway (AID 743191); settings: HEK293H PPARg-UAS-bla, beta-lactamase ratio, antagonist, 17 h; ratio activity, negative = inhibition: at 62.6 µM (top of the series) unless noted; further: nearly all actives have a fitted effect of over 30% in size
# UniProt P37231, sequence (P37231 whole entry, looked up): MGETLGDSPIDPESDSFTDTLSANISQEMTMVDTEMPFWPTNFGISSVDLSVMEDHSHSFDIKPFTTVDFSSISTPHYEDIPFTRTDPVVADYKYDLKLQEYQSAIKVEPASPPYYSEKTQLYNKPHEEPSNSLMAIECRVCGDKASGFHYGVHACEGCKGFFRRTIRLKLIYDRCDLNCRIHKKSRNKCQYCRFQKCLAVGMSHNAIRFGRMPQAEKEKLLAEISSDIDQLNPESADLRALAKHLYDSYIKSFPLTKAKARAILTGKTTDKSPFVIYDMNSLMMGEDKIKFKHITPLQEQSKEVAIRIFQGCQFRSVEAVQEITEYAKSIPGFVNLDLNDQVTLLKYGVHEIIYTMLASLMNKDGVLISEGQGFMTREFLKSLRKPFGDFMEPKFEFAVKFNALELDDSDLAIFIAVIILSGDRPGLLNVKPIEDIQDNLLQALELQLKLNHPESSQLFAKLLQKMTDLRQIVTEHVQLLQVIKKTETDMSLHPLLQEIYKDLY
# Procedure, shortened: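 Beta-lactamase reporter under UAS control in HEK293H PPARg-bla cells; compound treatment 17 h at 37C. Read-out: fluorescence intensity after 1 h room-temperature incubation with LiveBLAzer B/G FRET substrate.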
# [2] = qHTS assay for small molecule agonists of the antioxidant response element (ARE) signaling pathway (AID 743202; active means well fitted activation curve with a large enough effect in the signal ratio in the repeat runs, not every such curve was filed as active; inconclusive means weak or mixed curves, or effect the other way; inactive means no such curve, though single readings can be large or run the other way; the % refers to the signal ratio); settings: HepG2 ARE-bla reporter, beta-lactamase FRET, 16 h
# Procedure, shortened: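 Beta-lactamase reporter activity, read as fluorescence intensity, reflects ARE/Nrf2 pathway induction in HepG2 cells after 16 h compound exposure at 37 C; substrate loading was 2 h at room temperature.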
# [3] = qHTS assay for small molecule activators of the heat shock response signaling pathway - cell viability counter screen (AID 743209; active means well fitted curve in the direction sought with a large enough effect in the repeat runs; inconclusive means weak or mixed curves; inactive means no such curve, though single readings can be large; an effect the other way counts as inactive or inconclusive; further: nearly all actives have a fitted effect of over 50% in size); settings: HSE-bla HeLa viability, CellTiter-Glo luminescence, 5 h; activity change, negative = cytotoxicity: at 62.6 µM (top of the series) unless noted
# Procedure, shortened: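 Cytotoxicity counter screen run in parallel with the HSE beta-lactamase reporter, using the same wells. HeLa HSE-bla cells received compound for 5 h at 37 C; ATP-based CellTiter-Glo luminescence was measured after 30 min at room temperature.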
# [4] = qHTS assay for small molecule agonists of the antioxidant response element (ARE) signaling pathway - cell viability counter screen (AID 743203); settings: ARE-bla HepG2 viability, CellTiter-Glo luminescence, 16 h; viability change, negative = cytotoxic: at 73.3 µM (top of the series); further: nearly all actives have a fitted effect of over 55% in size
# Procedure, shortened: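 Cytotoxicity was tested in parallel with the ARE reporter screen. ARE-bla HepG2 cells were exposed to compounds for 16 hrs, and viability was taken from CellTiter-Glo luminescence.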
# [5] = qHTS assay to identify small molecule agonists of the peroxisome proliferator-activated receptor delta (PPARd) signaling pathway - cell viability counter screen (AID 743211; active means well fitted curve in the direction sought with a large enough effect in the repeat runs; inconclusive means weak or mixed curves; inactive means no such curve, though single readings can be large; an effect the other way counts as inactive or inconclusive; further: nearly all actives have a fitted effect of over 55% in size); settings: PPARd-bla HEK293H viability, CellTiter-Glo luminescence, 17 h; activity change, negative = cytotoxicity: at 62.6 µM (top of the series)
# Procedure, shortened: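 HEK293H PPARd-bla, 3000 cells/well; 5 h preincubation 37C/5% CO2; cpd in DMSO, 17 h 37C; B/G FRET substrate 2 h RT; CellTiter-Glo 30 min RT, luminescence.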
# [6] = qHTS assay for small molecule activators of the heat shock response signaling pathway (AID 743210; active means well fitted activation curve with a large enough effect in the signal ratio in the repeat runs, with a control signal flat, not every such curve was filed as active; inconclusive means weak or mixed curves; the % refers to the signal ratio;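 on activation: HeLa cells with beta-lactamase reporter driven by heat shock elements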); settings: HeLa HSE-bla reporter, beta-lactamase ratio, 5 h; activation: at 62.6 µM (top of the series) unless noted
# Procedure, shortened: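 Fluorescence from a cleaved B/G FRET substrate (2.5 h, room temp) reports HSE-driven beta-lactamase in HeLa cells treated 5 h at 37 C with DMSO-dissolved compounds.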
# [7] = activation: at 73.3 µM (top of the series) unless noted
# On the % scale 0 is the no-effect control and ±100 the full control effect; potency means the concentration at half of the fitted maximal effect; tags describe the fitted curve by direction and shape or compound fluorescence and quenching.
smiles,measurement,setting,value
OC1CCCc2ccccc21 (stereo not drawn),Potency,[1],inactive
same,Potency,[2]; [7],inactive
CC(=O)Nc1cccc(N)c1,Potency,[1],inactive
same,activation,[2]; [7],inconclusive: 51.1% [at 94.8 µM]
same,Potency,[3],inactive
CS(=O)(=O)c1ccc([C@@H](C[C@H]2CCC(=O)C2)C(=O)Nc2cnccn2)cc1Cl,Potency,[1],inactive
same,Potency,[2]; [7],inconclusive: 24.3 µM
same,Potency,[4],inactive
same,Potency,[5],"inconclusive: 21.9 µM [cytotoxic, single point]"
CC1(C)[C@@H](OC(=O)CCC(=O)O)CC[C@]2(C)[C@H]3C(=O)C=C4[C@@H]5C[C@@](C)(C(=O)O)CC[C@]5(C)CC[C@@]4(C)[C@]3(C)CC[C@@H]12,Potency,[1],"inconclusive: 18.8 µM [fluorescent, partial curve]"
same,Potency,[2]; [7],active: 26.6 µM
same,Potency,[4],inactive
same,Potency,[3],"inconclusive: 0.133 µM [cytotoxic, partial curve, poor fit]"
CC(=O)Oc1c(C)c(C)c2c(c1C)CC[C@@](C)(CCC[C@H](C)CCC[C@H](C)CCCC(C)C)O2,Potency,[1],inactive
same,activation,[2]; [7],inconclusive: -12.4%
same,activation,[2]; at 73.3 µM (top of the series),inactive: -1.68%
same,Potency,[3],"inconclusive: 54.9 µM [cytotoxic, single point]"
same,Potency,[6],"inconclusive: 43.6 µM [activator, partial curve]"
CCCCC(=O)N(C)C,"ratio activity, negative = inhibition",[1],inconclusive: 5.06%
same,Potency,[2]; [7],inactive
CC(C)(C)N,"ratio activity, negative = inhibition",[1],inconclusive: 1.06%
same,Potency,[2]; [7],inactive
same,Potency,[3],inactive
COc1ccc(C)cc1[N+](=O)[O-],"ratio activity, negative = inhibition",[1],inconclusive: 7.3% [at 81.1 µM]
same,activation,[2]; [7],inconclusive: 14.6% [at 94.8 µM]
same,Potency,[3],inactive
CC(=O)Oc1cccc2c1C(=O)c1c(OC(C)=O)cc(C(=O)O)cc1C2=O,"ratio activity, negative = inhibition",[1],inconclusive: 0.175%
same,Potency,[2]; [7],active: 15 µM
same,Potency,[3],"inconclusive: 8.41 µM [cytotoxic, partial curve, poor fit]"
CC(C)=O,"ratio activity, negative = inhibition",[1],inconclusive: 1.51%
same,Potency,[2]; [7],inactive
same,Potency,[4],inactive
CCCCCCCCC1CCC(=O)O1 (stereo not drawn),"ratio activity, negative = inhibition",[1],inconclusive: 15.3%
same,activation,[2]; [7],inconclusive: 1.03%
same,Potency,[3],inactive
CCCCC(CC)COC(=O)/C=C\C(=O)OCC(CC)CCCC (stereo not drawn),"ratio activity, negative = inhibition",[1],inconclusive: -28.7%
same,Potency,[2]; [7],"inconclusive: 4.32 µM [rising, full curve, poor fit]"
same,activation,[2]; [7],inconclusive: 45%
CCC(CO)(CO)[N+](=O)[O-],Potency,[1],inactive
same,Potency,[2]; [7],inactive
O=C(O)COCCN1CCN(C(c2ccccc2)c2ccc(Cl)cc2)CC1 (stereo not drawn),"ratio activity, negative = inhibition",[1],inconclusive: 13%
same,Potency,[2]; [7],inconclusive: 17.2 µM
same,activation,[2]; [7],inconclusive: -0.0032%
CCCCCCCCCCCC(=O)OCC(C)OC(=O)CCCCC(=O)O (stereo not drawn),Potency,[1],"inconclusive: 8.49 µM [cytotoxic, partial curve]"
same,Potency,[2]; [7],"inconclusive: 21.1 µM [falling, partial curve]"
CCc1cccc2c3c([nH]c12)C(CC)(CC(=O)O)OCC3 (stereo not drawn),"ratio activity, negative = inhibition",[1],inconclusive: -44%
same,Potency,[2]; [7],inconclusive: 68.4 µM and inactive
CC(C)=CCC[C@](C)(O)[C@@H]1CC=C(C)CC1,"ratio activity, negative = inhibition",[1],inconclusive: 34.9%
same,activation,[2]; [7],inconclusive: -4.96%
same,Potency,[3],"inconclusive: 61.6 µM [cytotoxic, partial curve, poor fit]"
OCCc1ccccc1,"ratio activity, negative = inhibition",[1],inconclusive: 13.9%
same,activation,[2]; [7],inconclusive: 1.12%
same,activation,[2]; at 73.3 µM (top of the series),inactive: -15.3%
same,activation,[2]; at 94.8 µM (top of the series),inactive: -3.08%
CC(=O)OCC1=C(C(=O)O)N2C(=O)[C@@H](NC(=O)CSc3ccncc3)[C@H]2SC1,Potency,[1],inactive
same,activation,[2]; [7],inconclusive: 19.5%
CC(=O)c1ccc2c(c1)[C@H](NC(=O)c1ccc(F)cc1)[C@@H](O)C(C)(C)O2,"ratio activity, negative = inhibition",[1],inconclusive: -9.05%
same,activation,[2]; [7],inconclusive: -5.33%
CCCCC/C=C/CC1CC(=O)OC1=O (stereo not drawn),"ratio activity, negative = inhibition",[1],inconclusive: 18.8%
same,Potency,[2]; [7],inactive
same,Potency,[4],"inconclusive: 19.3 µM [cytotoxic, partial curve, poor fit]"
O=C(O)c1cccc(C(=O)O)c1C(=O)O,"ratio activity, negative = inhibition",[1],inconclusive: 13% [at 81.1 µM]
same,activation,[2]; [7],inconclusive: 4.21% [at 94.8 µM]
same,Potency,[3],"inconclusive: 0.0031 µM [rising, full curve, poor fit]"
C=C[Si](OCCOC)(OCCOC)OCCOC,Potency,[1],inconclusive: 22 µM [activator] and inactive
same,activation,[2]; [7],inconclusive: 0.157%
same,Potency,[6],inactive
C[C@]1(Cn2ccnn2)[C@H](C(=O)O)N2C(=O)C[C@H]2S1(=O)=O,Potency,[1],"inconclusive: 0.944 µM [rising, full curve]"
same,Potency,[2]; [7],"inconclusive: 0.335 µM [rising, full curve]"
same,Potency,[6],inactive
CC(C(=O)O)c1ccc2c(c1)[nH]c1ccc(Cl)cc12 (stereo not drawn),Potency,[1],"inconclusive: 26.6 µM [inhibitor, partial curve]"
same,activation,[2]; [7],inconclusive: 15.6%
same,Potency,[5],inactive
